Test results: PubChem BioAssay AID1508642 (National Center for Advancing Translational Sciences (NCATS), 2021)
Among all 43,000 compounds or so, about 200 (0.47%) were called active. Not shown: some 12% with an inconclusive outcome. Calls come from the whole dose curve; as a rule, active = well fitted cell-killing curve with a large enough effect; inconclusive = small, poorly fitted or top-dose-only effect, or effect the other way; inactive = flat fitted curve, though single readings scatter. This is one part of the list.

Assay: Cell viability qHTS assay in S16 Pmp22-F2sN cells; note: nearly all actives have a fitted effect of over 65% in size
Details: S16 Pmp22-F2sN Schwann cells viability, CellTiter-Glo, 24 h; series mostly up to 57.5 µM; activity change, negative = cytotoxicity: at the top concentration
Procedure, shortened: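 Used to flag compounds lowering reporter output through toxicity, this quantitative HTS measures ATP-based CellTiter-Glo luminescence in S16 Pmp22-F2sN Schwann cells after 24 h compound exposure at 37C.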
% is set by controls: 0 for no effect and ±100 for the full control effect.

SMILES	activity change, negative = cytotoxicity
COc1ccc(S(=O)(=O)NCC(c2ccco2)N2CCOCC2)cc1OC (stereo not drawn)	inactive: 14.9%
COc1cccc(NC(=O)CC2NCCNC2=O)c1 (stereo not drawn)	inactive: 16.5%
COc1ccc(C(=O)NCC(c2ccc(N(C)C)cc2)N2CCc3ccccc32)c(OC)c1 (stereo not drawn)	inactive: 6.53%
COc1ccc(Cn2c(=O)c3oc4ccccc4c3n(CC(=O)Nc3ccc(F)cc3F)c2=O)cc1	inactive: 0.782%
O=C(NCCc1ccccc1Cl)c1ccc2c(c1)nc1n2CCCCC1	inactive: -2.01%
CCN(CC)c1ccc(-c2nc(-c3ccccc3C)no2)cc1[N+](=O)[O-]	inactive: 23.3%
Cc1ccc(Nc2nc(C)nc(N)c2S(=O)(=O)c2ccccc2)cc1	inactive: -5.55%
CC1=C(C(=O)Nc2ccccc2)C(c2cccn2C)n2ncnc2N1 (stereo not drawn)	inactive: 11.9%
Cc1ccc(C)c(Cn2c(C3CC(=O)N(c4ccccc4C)C3)nc3ccccc32)c1 (stereo not drawn)	inactive: 3.22%
Cc1ccc(CNC(=O)CSc2n[nH]c(-c3ccc(F)cc3)n2)cc1	inactive: -0.0153%
O=S(=O)(c1ccc2nc(N3CCN(c4cccc(Cl)c4)CC3)ccc2c1)N1CCCCC1	inactive: 8.72%
Cc1ccc(Cl)cc1N1CCN(Cc2nnc(-c3ccc4c(c3)OCO4)o2)CC1	inactive: -11.5%
Cc1cc(NC(=O)C2CCN(S(=O)(=O)c3ccc(Br)s3)CC2)ccc1Br	inactive: 7.7%
Cc1ccc(NC(=O)CN2C(=O)CCSc3ccc(S(=O)(=O)N4CCCC4)cc32)cc1C	inactive: 1.88%
Cc1ccc(C)c(OC(=O)CSc2nnc(CNC(=O)c3ccccc3)o2)c1	inactive: 7.2%
CC1=C(c2ccc(C)cc2)S(=O)(=O)NC1=NCCCN1CCN(c2ccc(F)cc2)CC1	inactive: -5.11%
CC(=O)N1CCc2c(sc3nc(SCC(C)C)n(-c4ccc(F)c(Cl)c4)c(=O)c23)C1	inactive: 3.8%
CCCSc1ncc(Cl)c(C(=O)Nc2c(C(=O)Nc3ccc(C)cc3)oc3ccccc23)n1	inactive: -2.47%
COC(=O)c1ccc(C2C(C(=O)Nc3ccccc3)=C(C)Nc3nc4ccccc4n32)cc1 (stereo not drawn)	inactive: 0.0463%
CCc1nc(Oc2cccc(F)c2)c2oc3ccccc3c2n1	inactive: 3.15%
Cc1cc2oc(C(=O)Nc3ccc(S(=O)(=O)N4CCCCCC4)cc3)cc(=O)c2cc1C	inactive: -0.281%
CCN(CC)c1ccc(NS(=O)(=O)c2cc3[nH]c(=O)c(=O)[nH]c3cc2C)c(C)c1	inactive: 14.3%
CCN(CC)c1ccc(NC(=O)CSc2nc(-c3cccs3)cc(C(F)(F)F)n2)cc1	inactive: -0.273%
Cc1ccc(NC(=O)Nc2nnc(N(C)Cc3ccccc3)s2)c(C)c1	inactive: -17.7%

SMILES	activity change, negative = cytotoxicity
CC(C)CCNC(=O)CN1N=C(c2ccc(Cl)cc2)CCC1=O	inactive: -1.04%
COc1ccc(CN2C(=O)c3ccccc3C2C(=O)NCCc2ccccc2)c(OC)c1 (stereo not drawn)	inactive: 2.8%
CC1=C(C(=O)Nc2ccc(C)cc2C)C(c2cccs2)n2nc(SCc3ccccc3Cl)nc2N1 (stereo not drawn)	inactive: 8.2%
COc1cccc(N2CCN(C(=O)Cn3c(-c4cccs4)cc4ccccc43)CC2)c1	inactive: 3.55%
O=C(Nc1cccc(C(F)(F)F)c1)c1cc2ccc3cccnc3c2[nH]1	inactive: 0.731%
Cc1ccc(-c2nc(C)c(CCNS(=O)(=O)c3ccc(F)c(C(F)(F)F)c3)s2)cc1	inactive: 6.46%
CCn1cc(C(=O)N2CCN(c3ccccc3F)CC2)c(=O)c2cc(S(=O)(=O)N(C)C)ccc21	inactive: 2.05%
O=c1cc(-c2ccccc2)n2c(SCc3ccc(F)cc3)nnc2[nH]1	inactive: -2.23%
CCOC(=O)c1c(C)[nH]c(CCC(=O)NCc2ccc(N(C)C)cc2)c1C	inactive: 11.8%
CCN(Cc1ccccc1)C(=O)Cn1c(=O)n(-c2ccc(C)c(C)c2)c(=O)c2c(C)c(C)sc21	inactive: -18.3%
O=c1oc2ccccc2cc1-c1cn2cc(Cc3ccc(Cl)cc3)sc2n1	inactive: -2.04%
Cc1cccc(-c2nc3c4ccccc4nc(N4CCN(c5cc(C)ccc5C)CC4)n3n2)c1	inactive: 2.04%
COc1cccc(C(=O)Nc2cccc(-c3cn4c(C)csc4n3)c2)c1OC	inactive: 18.1%
O=C(Nc1cccc(Cl)c1)c1cc2c(=O)[nH]c3ccccc3c2s1	inactive: -12.8%
Cc1cccc(N2CCN(C(=O)CCn3c(=O)c4cccn4c4cccnc43)CC2C)c1 (stereo not drawn)	inactive: -13.4%
Cc1nnc(N2CCCC(C(=O)NCCc3ccc(Cl)cc3)C2)c2nn(-c3ccccc3)c(C)c12 (stereo not drawn)	inactive: -7.67%
O=C(Nc1ccc(-c2cn3cccnc3n2)cc1)c1cc(Br)ccc1Cl	inactive: 12.6%
CCc1ccccc1NC(=O)c1cnc2sc(N3CCCC3)nn2c1=O	inactive: -3.46%
CCOc1ccc(-c2nn(CC(=O)NC3CCCC3)c3c2cnc2ccc(F)cc23)cc1	inactive: 23.3%
Cc1nc(-c2cccnc2)sc1CCNS(=O)(=O)c1ccc(F)cc1	inactive: -6%
COCCNC(=O)c1cccc(-n2c(C)nc3cccnc32)c1	inactive: -1.06%
COc1ccc2c(CNCCc3ccco3)c(C(=O)O)n(Cc3ccccc3)c2c1	inactive: 15.1%
COc1ccc(NC(=O)CSc2nc3ccccc3n2Cc2cccc(OC)c2)cc1	inactive: -0.336%
CCOc1ccc(NC(=O)C2CCN(c3nnc(-n4c(C)ccc4C)s3)CC2)cc1	inactive: -2.82%
